No constants are given. Whether binding was seen depends on the method and setting. For part of these data: In cells and extracts the contact can be indirect. Some entries that bind do so weakly or less than the wild type. Sequences can lack the tags named with a protein. Each block holds one binder with its values, some of them ahead of it.
Experiments:
[1] = molecular target: GFP-tagged CSB, full-length construct, T1447A (human) (UniProt Q03468); assay: co-IP; GFP-Trap magnetic agarose on RIPA lysates (with Benzonase) of HEK293 FT cells transfected with GFP-tagged SNM1A or CSB; washes with 150, 250 and 500 mM NaCl; Western blot
[2] = molecular target: GFP-tagged CSB, full-length construct, WT (human) (UniProt Q03468); assay: as above
[3] = molecular target: N-His-ZB-CSB-Avi-Biotin (T1447A), full length (human) (UniProt Q03468); assay: SPR; multi-cycle; full-length CSB immobilised via biotinylated C-terminal Avi tag; untagged SNM1A 698-1040 as analyte, 90 s injection; 20 mM HEPES pH 7.5, 500 mM NaCl, 0.5 mM TCEP, 0.01% TWEEN-20; both purified

Chains of the proteins cited; added tags and fusions are not shown. Lines headed by an entry give the natural chain unless they say otherwise; changes in a name come on top.
UniProt Q03468: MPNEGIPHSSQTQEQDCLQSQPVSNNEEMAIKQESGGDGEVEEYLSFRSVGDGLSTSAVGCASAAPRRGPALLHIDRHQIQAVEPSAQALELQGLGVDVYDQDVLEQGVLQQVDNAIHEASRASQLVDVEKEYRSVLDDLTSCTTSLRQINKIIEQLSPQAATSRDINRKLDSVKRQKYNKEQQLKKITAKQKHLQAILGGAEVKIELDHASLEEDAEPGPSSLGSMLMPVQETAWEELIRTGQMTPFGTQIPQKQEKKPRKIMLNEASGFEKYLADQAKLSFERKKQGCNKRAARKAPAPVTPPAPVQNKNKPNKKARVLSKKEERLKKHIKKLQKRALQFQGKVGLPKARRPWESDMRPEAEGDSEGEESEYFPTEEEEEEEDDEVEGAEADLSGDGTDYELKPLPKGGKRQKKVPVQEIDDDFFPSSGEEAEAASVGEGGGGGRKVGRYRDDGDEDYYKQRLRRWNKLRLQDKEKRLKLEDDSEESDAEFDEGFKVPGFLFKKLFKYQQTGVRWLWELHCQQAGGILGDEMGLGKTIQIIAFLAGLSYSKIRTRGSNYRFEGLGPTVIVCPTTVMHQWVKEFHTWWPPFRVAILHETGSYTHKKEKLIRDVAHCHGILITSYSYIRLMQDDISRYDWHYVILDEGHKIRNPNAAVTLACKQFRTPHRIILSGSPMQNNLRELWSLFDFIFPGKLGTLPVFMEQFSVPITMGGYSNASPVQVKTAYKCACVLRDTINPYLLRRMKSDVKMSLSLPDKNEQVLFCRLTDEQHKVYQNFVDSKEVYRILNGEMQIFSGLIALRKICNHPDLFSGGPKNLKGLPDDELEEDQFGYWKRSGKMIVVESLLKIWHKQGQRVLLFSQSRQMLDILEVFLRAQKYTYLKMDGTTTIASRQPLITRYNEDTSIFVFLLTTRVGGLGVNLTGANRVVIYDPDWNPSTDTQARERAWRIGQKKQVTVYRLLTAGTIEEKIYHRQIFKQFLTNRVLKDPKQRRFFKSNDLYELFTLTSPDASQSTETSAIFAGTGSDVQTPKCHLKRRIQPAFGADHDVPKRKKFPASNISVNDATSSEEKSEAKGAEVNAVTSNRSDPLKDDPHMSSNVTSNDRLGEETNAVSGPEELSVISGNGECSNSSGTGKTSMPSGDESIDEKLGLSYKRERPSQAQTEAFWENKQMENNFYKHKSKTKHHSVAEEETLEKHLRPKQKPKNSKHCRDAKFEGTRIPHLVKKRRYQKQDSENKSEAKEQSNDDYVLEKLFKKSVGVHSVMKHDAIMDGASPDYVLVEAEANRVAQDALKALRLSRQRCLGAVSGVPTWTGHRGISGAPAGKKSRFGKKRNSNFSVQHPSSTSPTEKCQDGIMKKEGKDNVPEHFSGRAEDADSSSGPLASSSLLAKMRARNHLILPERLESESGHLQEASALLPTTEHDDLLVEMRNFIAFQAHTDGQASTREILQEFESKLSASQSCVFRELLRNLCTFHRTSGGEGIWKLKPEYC

- binding [1]: no binding
- binding [2]: binds
B1: SNM1A tested in the co-immunoprecipitates of GFP-CSB (protein, UniProt Q6PJP8 1-1040)
chain: MLEDISEEDIWEYKSKRKPKRVDPNNGSKNILKSVEKATDGKYQSKRSRNRKRAAEAKEVKDHEVPLGNAGCQTSVASSQNSSCGDGIQQTQDKETTPGKLCRTQKSQHVSPKIRPVYDGYCPNCQMPFSSLIGQTPRWHVFECLDSPPRSETECPDGLLCTSTIPFHYKRYTHFLLAQSRAGDHPFSSPSPASGGSFSETKSGVLCSLEERWSSYQNQTDNSVSNDPLLMTQYFKKSPSLTEASEKISTHIQTSQQALQFTDFVENDKLVGVALRLANNSEHINLPLPENDFSDCEISYSPLQSDEDTHDIDEKPDDSQEQLFFTESSKDGSLEEDDDSCGFFKKRHGPLLKDQDESCPKVNSFLTRDKYDEGLYRFNSLNDLSQPISQNNESTLPYDLACTGGDFVLFPPALAGKLAASVHQATKAKPDEPEFHSAQSNKQKQVIEESSVYNQVSLPLVKSLMLKPFESQVEGYLSSQPTQNTIRKLSSENLNAKNNTNSACFCRKALEGVPVGKATILNTENLSSTPAPKYLKILPSGLKYNARHPSTKVMKQMDIGVYFGLPPKRKEEKLLGESALEGINLNPVPSPNQKRSSQCKRKAEKSLSDLEFDASTLHESQLSVELSSERSQRQKKRCRKSNSLQEGACQKRSDHLINTESEAVNLSKVKVFTKSAHGGLQRGNKKIPESSNVGGSRKKTCPFYKKIPGTGFTVDAFQYGVVEGCTAYFLTHFHSDHYAGLSKHFTFPVYCSEITGNLLKNKLHVQEQYIHPLPLDTECIVNGVKVVLLDANHCPGAVMILFYLPNGTVILHTGDFRADPSMERSLLADQKVHMLYLDTTYCSPEYTFPSQQEVIRFAINTAFEAVTLNPHALVVCGTYSIGKEKVFLAIADVLGSKVGMSQEKYKTLQCLNIPEINSLITTDMCSSLVHLLPMMQINFKGLQSHLKKCGGKYNQILAFRPTGWTHSNKFTRIADVIPQTKGNISIYGIPYSEHSSYLEMKRFVQWLKPQKIIPTVNVGTWKSRSTMEKYFREWKLEAGY

- binding [3]: no binding
B2: SNM1A (WT, a.a. 698-1040, untagged) (domain or fragment, UniProt Q6PJP8 698-1040)
chain: KKTCPFYKKIPGTGFTVDAFQYGVVEGCTAYFLTHFHSDHYAGLSKHFTFPVYCSEITGNLLKNKLHVQEQYIHPLPLDTECIVNGVKVVLLDANHCPGAVMILFYLPNGTVILHTGDFRADPSMERSLLADQKVHMLYLDTTYCSPEYTFPSQQEVIRFAINTAFEAVTLNPHALVVCGTYSIGKEKVFLAIADVLGSKVGMSQEKYKTLQCLNIPEINSLITTDMCSSLVHLLPMMQINFKGLQSHLKKCGGKYNQILAFRPTGWTHSNKFTRIADVIPQTKGNISIYGIPYSEHSSYLEMKRFVQWLKPQKIIPTVNVGTWKSRSTMEKYFREWKLEAGY
